“And” between values parts separate entries of the source, which are not always exact repeats. Equal values may be shown once. This list was built around the results that the source calls inconclusive (neither active nor inactive); the mix of calls is not that of the screen. Where the call is inconclusive, the potency comes from a doubtful curve fit. “Side channel” marks fits to a control or component signal instead of the main read-out. The source made the active and inactive calls. Calls follow the shape of the dose curve; as a rule, active = well fitted inhibition curve with a large enough effect in the signal ratio, with a control signal flat (not every such curve was filed as active); inconclusive = small, poorly fitted or top-dose-only effect, or effect the other way, or a change in a side signal; inactive = no such curve, though single readings can be large or run the other way; the % refers to the signal ratio.
Each molecule was assayed against Retinoic acid receptor RXR-alpha (Homo sapiens) (UniProt P19793) (assay: qHTS assay for small molecule antagonists of retinoid X receptor alpha signaling (AID 588546)). Settings: HEK293T RXRa-UAS-bla, beta-lactamase ratio, antagonist mode.
Chain of UniProt P19793 (P19793 whole entry, looked up): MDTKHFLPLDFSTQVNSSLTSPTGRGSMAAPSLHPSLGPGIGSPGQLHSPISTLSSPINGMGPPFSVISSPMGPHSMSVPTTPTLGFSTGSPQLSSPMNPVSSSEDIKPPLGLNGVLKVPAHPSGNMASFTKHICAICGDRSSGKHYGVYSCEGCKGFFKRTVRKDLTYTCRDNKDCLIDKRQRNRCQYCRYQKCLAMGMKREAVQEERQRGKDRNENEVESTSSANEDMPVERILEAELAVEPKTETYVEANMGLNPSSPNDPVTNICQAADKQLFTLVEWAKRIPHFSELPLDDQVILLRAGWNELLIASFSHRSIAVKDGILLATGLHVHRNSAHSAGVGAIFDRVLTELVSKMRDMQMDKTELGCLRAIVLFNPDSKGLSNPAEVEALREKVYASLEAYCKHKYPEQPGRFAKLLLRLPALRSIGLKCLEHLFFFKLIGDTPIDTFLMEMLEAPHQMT
From the text: NIH Chemical Genomics Center [NCGC] U.S. Environmental Protection Agency [EPA] National Institutes of Environmental Health Sciences [NIEHS] National Toxicology Program [NTP] NCGC Assay Overview The Retinoid X receptor (RXR), a nuclear hormone receptor is expressed in liver, spleen, placenta, epidermis, central nervous system. These receptors are able to form homo and heterodimers with other nuclear receptors and due to this heterodimerizing ability, RXR functions as master regulators producing diverse physiological effects. Three subtypes of RXR exist; alpha, beta and gamma. Retinoid X receptor alpha (RXR-alpha) has potential roles in metabolic signaling pathways, skin alopecia, dermal cysts, cardiac development, insulin sensitization etc. Therefore screening environmental chemicals on RXR-alpha signaling can be used for the studies focused on such therapeutic applications.
NCGC Assay Protocol Summary Using a beta-lactamase reporter-gene under control of Retinoid X receptor--alpha (RXR-alpha) response element, a cell-based assay [GeneBLAzer (RXR-alpha -UAS-bla assay developed by Invitrogen] was used to measure RXR-alpha ligands signaling. GeneBLAzer RXR-alpha -UAS-bla HEK293T cells were used with assay medium containing 2% charcoal-stripped FBS. The assay was performed in clear bottom black Greiner 1536-well plates. Library compounds were measured for their ability to inhibit the reporter gene activity. Compounds were screened in a titration series in 1536-well format. The fluorescence intensity (405 nm excitation, 460/530 nm emission) was measured using an EnVision plate reader. Data was normalized relative to 9-cis-retinoic acid control (500 nM, 100%), and DMSO only wells (basal, 0%). Concentration-response titration points for each compound were fitted to the Hill equation yielding concentrations of half-maximal inhibition (IC50) and maximal response (efficacy) values. qHTS protocol for RXR-alpha beta-lactamase assay in antagonist mode [Step] [Parameter] [Value] [Description] 1. Reagent; 5 uL; 2500 cells/well 2. Incubation; 37 C for 4 hrs 3. Compounds; 23 nL; 0.59 nM to 92 uM 4. Controls (DMSO); 23 nL 5. Agonist (Stimulator); 1uL; 9-cis-retinoic acid at 500 nM and 100 nM final concentrations 6. Incubation; 37 C for 18 hrs 7. Detection reagent; 1 uL of CCF4-dye 8. Incubation; RT for 2 hrs 9. Detection; Fluorescence; Envision plate reader
For `O=C(Cl)c1cccc([N+](=O)[O-])c1`, the max response was inactive: 24.8%.
`Cc1ccc2oc(=O)ccc2c1` was tested, and the max response was inconclusive: -5.22%.
In the case of `CCCCOCCOCCOCCCC`, the max response is reported as inconclusive: -3.54%.
With `C=CCOC(=O)c1ccccc1C(=O)OCC=C` the max response was inactive: -2.1% and inactive: -17.2%.
In the case of `O=S(=O)(O)c1cc(S(=O)(=O)O)c2c(N=Nc3ccccc3)c(O)ccc2c1`, the Potency is reported as inconclusive: 50.1 µM [inhibitor, partial curve, poor fit].
In the case of `CCCCCCCCCCCC(=O)OC`, the Potency is reported as inconclusive: 35.5 µM [cytotoxic, side channel, partial curve, poor fit].
For `CCCCCCCCCCCO`, the max response was inconclusive: 3.66%.
With `COc1nc(C)nc(NC(=O)NS(=O)(=O)c2ccccc2OCCCl)n1` the max response was inactive: 20.3%.
With `CN(C)c1nc(=O)n(C2CCC(O)CC2)c(=O)n1C` (stereo not given) the max response was inconclusive: -14.6%.
`CCCCOC(=O)/C=C\C(=O)OCCCC` was tested, and the max response was inactive: 8.44%.
For `O=C1OC(=O)c2c(Br)c(Br)c(Br)c(Br)c21`, the max response was inactive: 6.1% and inactive: -5.43%.
With `Nc1ccc(S(=O)(=O)O)cc1` the max response was inconclusive: -1.17%.
`Cc1ccc(S(=O)(=O)C(I)I)cc1` was tested, and the Potency was inconclusive: 12.6 µM [cytotoxic, side channel, full curve, poor fit].
In the case of `CC(C)(C)[C@H](O)[C@H](Cc1ccc(Cl)cc1)n1cncn1`, the max response is reported as inconclusive: -81.5%.
For `O=[N+]([O-])c1ccc(O)cc1C(F)(F)F`, the Potency was active: 7.94 µM.
`C[C@@H]1CC2(OC[C@]3(C)O[C@H]23)O[C@H]2C[C@@]3(C)[C@@H]4CC[C@H]5C(C)(C)C(O[C@@H]6OC[C@@H](O)[C@H](O)[C@H]6O)CC[C@@]56C[C@@]46CC[C@]3(C)[C@@H]12` (stereo not given in full) was tested, and the max response was inconclusive: -1.59%.
For `CC/C(C)=N/O`, the max response was inconclusive: 3.37%.
`CC(C)(C)c1cc(C(C)(C)C)c(O)c(C(C)(C)C)c1` was tested, and the max response was inconclusive: 30.4%.
With `CCCC/C=C/CCCCO` the max response was inactive: -16.5%.
With `O=C(O)c1cc(O)c2ccccc2c1O` the Potency was inconclusive: 28.2 µM [inhibitor, full curve, poor fit].
`Oc1ccc(Nc2ccccc2)cc1` was tested, and the max response was inconclusive: -41.5%.
`CCOC(=O)COc1cc(-n2ncc(C(F)(F)F)c(C)c2=O)c(F)cc1Cl` was tested, and the max response was inconclusive: 5.98%.
`CN(C)C=O` was tested, and the max response was inconclusive: 0.375%.
`CN=C(N)NCC1CCOC1` (stereo not given) was tested, and the Potency was inconclusive: 39.8 µM [inhibitor, partial curve, poor fit].
In the case of `CC(=O)C1(C)CC2=C(CCCC2(C)C)CC1C` (stereo not given), the max response is reported as inactive: 25.5%.
For `CCCCCCC(O)CCCCCCCCCCC(=O)OC` (stereo not given), the max response was inconclusive: -36.8%.
In the case of `CCCCOCCOCCOC(C)=O`, the Potency is reported as inconclusive: 0.158 µM [cytotoxic, side channel, full curve, poor fit].
For `Nc1cccc(C(F)(F)F)c1`, the max response was inactive: 23% and inactive: -15.4%.
In the case of `CCCCCCCCCCCCC1CO1` (stereo not given), the max response is reported as inactive: 7.51%.
With `Nc1c(N=Nc2ccc(S(=O)(=O)CCOS(=O)(=O)O)cc2)c(S(=O)(=O)O)cc2cc(S(=O)(=O)O)c(N=Nc3ccc(S(=O)(=O)CCOS(=O)(=O)O)cc3)c(O)c12` the max response was inactive: -5.5%.
In the case of `CCCCCCN`, the max response is reported as inactive: 2.42%.
For `C=C(C)C(=O)OCCC[Si](OC)(OC)OC`, the max response was inactive: -21.4%.
With `CCCCCCCCCCO` the max response was inactive: 6.68% and inactive: -9.14%.
With `C[Si]1(C)O[Si](C)(C)O[Si](C)(C)O[Si](C)(C)O[Si](C)(C)O1` the max response was inactive: 2.84%.
In the case of `CCCCCCCCCC(=O)OC`, the max response is reported as inactive: 2.82%.
In the case of `Nc1c(Cl)cc(Cl)cc1Cl`, the max response is reported as inactive: 4.53%.
In the case of `CC(C)(O)CCC(C)(C)O`, the max response is reported as inactive: 1.42%.
With `COc1cc(-c2ccc(N=C=O)c(OC)c2)ccc1N=C=O` the Potency was inconclusive: 39.8 µM [cytotoxic, side channel, partial curve].
In the case of `C=C(C)C(=O)OCC[N+](C)(C)C`, the max response is reported as inconclusive: -31.6%.
`Oc1ccc(C(c2ccc(O)cc2)C(Cl)(Cl)Cl)cc1` was tested, and the max response was inconclusive: -30.4%.
Tags tell the direction and shape of the fitted curve or compound fluorescence and quenching.
